# Some of the results follow.
# B1: Epa12 (Candida glabrata) (protein)
# chain: MGSSHHHHHHSSGLVPRGSHMLEPDNSLQIFDSFLSNPSKYPLGCSPKITNPKKGLSMELYSYPYRKKGSHPCWDPAYLDPNFPRVGYKKNKLIARVDGVSGDINFNFHPKRQCTPIADYLPPNFNYNEPITTTNFTMLLYGYFKPKVTGLHTFDISADDLLFMNFGAGNAFDCCRRDSTADTFGNYVAWAIWGRRIVRNKLTVRLDKGIYYPLRLFFNNRDYYGQMRLTFKTEHGSERITDFSDYFFSVDDTSEGCPGLITYESECADVKSSTVLETDYITIQAEKE
# Key:
# Test in all cases: glycan array binding signal (z-score within array); higher = stronger binding
# Details in all cases: glycan notation: IUPAC condensed, linker removed
# [1] = target: Fuc(a1-3)[Gal3S(b1-4)]GlcNAc
# In short: (§1)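 From the Consortium for Functional Glycomics database, 3228 arrays were curated, keeping only those whose protein sequence was available. Binding is given as a within-array Z-score averaged across arrays sharing a protein sequence and across linkers. Negative Z-scores can be read as non-binding.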
# [2] = target: Fuc(a1-3)[Gal3S(b1-4)]GlcNAc6S
# In short: as §1
# [3] = target: Fuc(a1-3)[GalNAc(b1-4)]Gal(b1-4)GlcNAc
# In short: as §1
# [4] = target: Fuc(a1-3)[GalNAc(b1-4)]GlcNAc
# In short: as §1
# [5] = target: Fuc(a1-3)[GalNAc(b1-4)]GlcNAc6S
# In short: as §1
# Fuc(a1-4)GlcNAc = target: Fuc(a1-4)GlcNAc
# In short: as §1
# Fuc(b1-3)GlcNAc = target: Fuc(b1-3)GlcNAc
# In short: as §1
# Gal(a1-2)Gal = target: Gal(a1-2)Gal
# In short: as §1
# Gal(a1-3)Gal = target: Gal(a1-3)Gal
# In short: as §1
# Gal(a1-3)Gal(b1-3)Glc = target: Gal(a1-3)Gal(b1-3)Glc
# In short: as §1
# Gal(a1-3)Gal(b1-3)GlcNAc = target: Gal(a1-3)Gal(b1-3)GlcNAc
# In short: as §1
# [6] = target: Gal(a1-3)Gal(b1-3)GlcNAc(b1-2)Man
# In short: as §1
# [7] = target: Gal(a1-3)Gal(b1-3)GlcNAc(b1-2)Man(a1-3)[Gal(a1-3)Gal(b1-3)GlcNAc(b1-2)Man(a1-6)]Man(b1-4)GlcNAc(b1-4)GlcNAc
# In short: as §1
# [8] = target: Gal(a1-3)Gal(b1-3)GlcNAc(b1-3)GalNAc
# In short: as §1
# [9] = target: Gal(a1-3)Gal(b1-3)GlcNAc(b1-6)GalNAc
# In short: as §1
# [10] = target: Gal(a1-3)Gal(b1-3)[Fuc(a1-4)]GlcNAc(b1-2)Man(a1-3)[Gal(a1-3)Gal(b1-3)[Fuc(a1-4)]GlcNAc(b1-2)Man(a1-6)]Man(b1-4)GlcNAc(b1-4)GlcNAc
# In short: as §1
# Gal(a1-3)Gal(b1-4)Glc = target: Gal(a1-3)Gal(b1-4)Glc
# In short: as §1
# Gal(a1-3)Gal(b1-4)GlcNAc = target: Gal(a1-3)Gal(b1-4)GlcNAc
# In short: as §1
# [11] = target: Gal(a1-3)Gal(b1-4)GlcNAc(b1-2)Man
# In short: as §1
# [12] = target: Gal(a1-3)Gal(b1-4)GlcNAc(b1-2)Man(a1-3)[Gal(a1-3)Gal(b1-4)GlcNAc(b1-2)Man(a1-6)]Man(b1-4)GlcNAc(b1-4)GlcNAc
# In short: as §1
# [13] = target: Gal(a1-3)Gal(b1-4)GlcNAc(b1-3)GalNAc
# In short: as §1
# [14] = target: Gal(a1-3)Gal(b1-4)GlcNAc(b1-6)GalNAc
# In short: as §1
# [15] = target: Gal(a1-3)Gal(b1-4)[Fuc(a1-3)]GalNAc
# In short: as §1
# [16] = target: Gal(a1-3)Gal(b1-4)[Fuc(a1-3)]GlcNAc
# In short: as §1
# [17] = target: Gal(a1-3)Gal(b1-4)[Fuc(a1-3)]GlcNAc(b1-2)Man(a1-3)[Gal(a1-3)Gal(b1-4)[Fuc(a1-3)]GlcNAc(b1-2)Man(a1-6)]Man(b1-4)GlcNAc(b1-4)GlcNAc
# In short: as §1
# Gal(a1-3)GalNAc = target: Gal(a1-3)GalNAc
# In short: as §1
# Gal(a1-3)GlcNAc = target: Gal(a1-3)GlcNAc
# In short: as §1
# [18] = target: Gal(a1-3)[Gal(a1-4)]Gal(b1-4)GlcNAc
# In short: as §1
# [19] = target: Gal(a1-4)Gal(b1-3)GlcNAc(b1-2)Man(a1-3)[Gal(a1-4)Gal(b1-3)GlcNAc(b1-2)Man(a1-6)]Man(b1-4)GlcNAc(b1-4)GlcNAc
# In short: as §1
# Gal(a1-4)Gal(b1-4)Gal = target: Gal(a1-4)Gal(b1-4)Gal
# In short: as §1
# Gal(a1-4)Gal(b1-4)GalNAc = target: Gal(a1-4)Gal(b1-4)GalNAc
# In short: as §1
# Gal(a1-4)Gal(b1-4)Glc = target: Gal(a1-4)Gal(b1-4)Glc
# In short: as §1
# Gal(a1-4)Gal(b1-4)GlcNAc = target: Gal(a1-4)Gal(b1-4)GlcNAc
# In short: as §1
# [20] = target: Gal(a1-4)Gal(b1-4)GlcNAc(b1-2)Man(a1-3)[Gal(a1-4)Gal(b1-4)GlcNAc(b1-2)Man(a1-6)]Man(b1-4)GlcNAc(b1-4)GlcNAc
# In short: as §1
# [21] = target: Gal(a1-4)Gal(b1-4)GlcNAc(b1-3)Gal(b1-4)Glc
# In short: as §1
# Gal(a1-4)GlcNAc = target: Gal(a1-4)GlcNAc
# In short: as §1
# Gal(a1-6)Glc = target: Gal(a1-6)Glc
# In short: as §1
# Gal(b1-2)Gal = target: Gal(b1-2)Gal
# In short: as §1
binder,measurement,setting,value
B1,glycan array binding signal (z-score),[1],0.051
same,glycan array binding signal (z-score),[2],-0.206
same,glycan array binding signal (z-score),[3],-0.287
same,glycan array binding signal (z-score),[4],-0.339
same,glycan array binding signal (z-score),[5],-0.366
same,glycan array binding signal (z-score),Fuc(a1-4)GlcNAc,-0.241
same,glycan array binding signal (z-score),Fuc(b1-3)GlcNAc,-0.313
same,glycan array binding signal (z-score),Gal(a1-2)Gal,0.092
same,glycan array binding signal (z-score),Gal(a1-3)Gal,2.18
same,glycan array binding signal (z-score),Gal(a1-3)Gal(b1-3)Glc,-0.242
same,glycan array binding signal (z-score),Gal(a1-3)Gal(b1-3)GlcNAc,1.71
same,glycan array binding signal (z-score),[6],3.52
same,glycan array binding signal (z-score),[7],0.261
same,glycan array binding signal (z-score),[8],1.07
same,glycan array binding signal (z-score),[9],4.44
same,glycan array binding signal (z-score),[10],0.353
same,glycan array binding signal (z-score),Gal(a1-3)Gal(b1-4)Glc,1.87
same,glycan array binding signal (z-score),Gal(a1-3)Gal(b1-4)GlcNAc,2.74
same,glycan array binding signal (z-score),[11],1.54
same,glycan array binding signal (z-score),[12],2.04
same,glycan array binding signal (z-score),[13],3.19
same,glycan array binding signal (z-score),[14],1.91
same,glycan array binding signal (z-score),[15],-0.246
same,glycan array binding signal (z-score),[16],0.985
same,glycan array binding signal (z-score),[17],-0.179
same,glycan array binding signal (z-score),Gal(a1-3)GalNAc,0.912
same,glycan array binding signal (z-score),Gal(a1-3)GlcNAc,-0.252
same,glycan array binding signal (z-score),[18],1.17
same,glycan array binding signal (z-score),[19],1.68
same,glycan array binding signal (z-score),Gal(a1-4)Gal(b1-4)Gal,-0.269
same,glycan array binding signal (z-score),Gal(a1-4)Gal(b1-4)GalNAc,-0.223
same,glycan array binding signal (z-score),Gal(a1-4)Gal(b1-4)Glc,2.06
same,glycan array binding signal (z-score),Gal(a1-4)Gal(b1-4)GlcNAc,3.53
same,glycan array binding signal (z-score),[20],0.51
same,glycan array binding signal (z-score),[21],1.9
same,glycan array binding signal (z-score),Gal(a1-4)GlcNAc,5.7
same,glycan array binding signal (z-score),Gal(a1-6)Glc,2.02
same,glycan array binding signal (z-score),Gal(b1-2)Gal,0.125

# — the supplement of paper PMC8728848
